The full ranking holds about 33,000 sequences; the median of “E-score (-0.5 to 0.5)” is about -0.012, and the highest 2% start at about 0.29. The list shows a part of the results.
The sequences below were run against T1, Ybr033w (UniProt P38073) (assay: PBM E-score (8-mer binding enrichment) (E-score (-0.5 to 0.5)); higher = stronger / more preferred TF binding; most listed sequences are background and not binding sites). Conditions: protein concentration: 200 nM; construct: GST-full length.
T1 sequence: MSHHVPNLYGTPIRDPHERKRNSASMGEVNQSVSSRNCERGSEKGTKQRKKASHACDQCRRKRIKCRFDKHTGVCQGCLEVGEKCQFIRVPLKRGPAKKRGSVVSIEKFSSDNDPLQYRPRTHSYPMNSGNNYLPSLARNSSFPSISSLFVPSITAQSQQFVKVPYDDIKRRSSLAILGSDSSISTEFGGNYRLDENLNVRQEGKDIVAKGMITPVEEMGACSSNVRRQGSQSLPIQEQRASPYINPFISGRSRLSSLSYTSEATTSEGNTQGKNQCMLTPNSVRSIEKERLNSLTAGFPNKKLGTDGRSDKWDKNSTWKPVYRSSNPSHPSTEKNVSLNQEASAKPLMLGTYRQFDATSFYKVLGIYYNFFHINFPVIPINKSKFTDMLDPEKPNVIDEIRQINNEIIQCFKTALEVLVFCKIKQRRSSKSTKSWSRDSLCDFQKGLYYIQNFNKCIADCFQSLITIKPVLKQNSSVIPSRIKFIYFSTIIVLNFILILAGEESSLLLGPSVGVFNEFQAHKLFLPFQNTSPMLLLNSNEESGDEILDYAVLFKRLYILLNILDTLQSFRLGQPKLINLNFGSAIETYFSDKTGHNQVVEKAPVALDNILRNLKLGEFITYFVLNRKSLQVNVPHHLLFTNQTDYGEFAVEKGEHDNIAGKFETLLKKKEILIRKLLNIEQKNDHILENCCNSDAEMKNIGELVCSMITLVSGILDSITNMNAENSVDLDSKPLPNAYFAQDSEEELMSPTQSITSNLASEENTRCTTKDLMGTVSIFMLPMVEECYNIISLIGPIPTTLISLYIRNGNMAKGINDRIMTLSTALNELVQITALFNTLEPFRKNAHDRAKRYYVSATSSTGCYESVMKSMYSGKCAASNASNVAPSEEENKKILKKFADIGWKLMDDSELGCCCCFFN
In short: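 Using PURExpress in vitro transcription/translation, GST-tagged yeast transcription factors were made in full-length or DNA-binding-domain form. These were applied at about 100-200 nM to double-stranded universal all-10-mer Agilent arrays, and bound protein was detected with fluorescent anti-GST. Scans were normalised with masliner before the Universal PBM Analysis Suite assigned E-scores to ungapped eight-base words pooled with their reverse complements.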

Row | Sequence | PBM E-score
1 | CTCTAGCA | -0.0957
2 | CCGCCAGG | -0.402
3 | CAGTGAGC | -0.177
4 | TCCTCCCA | -0.165
5 | CACCCACA | -0.189
6 | CCACGGGA | -0.186
7 | GATTATCC | 0.396
8 | TAGACCCA | -0.0171
9 | AGGTACAC | -0.143
10 | GCTCTCTA | -0.146
11 | ATGCGATG | -0.0777
12 | GCGTAAAA | 0.276
13 | ACGAGATG | -0.0859
14 | CGTTGAAA | -0.0339
15 | CTTTTAGC | 0.0655
16 | TCACCAAA | 0.208
17 | CCACTGAA | 0.0758
18 | AGCCGACC | -0.261
19 | CATTAGCC | -0.0697
20 | GCGAGCAA | 0.0139
21 | CTCTAAAC | 0.0439
22 | AACTCTAA | 0.241
23 | GGATGATA | 0.124
24 | CTGGCCAG | -0.382

Row | Sequence | PBM E-score
25 | AGCACAAG | -0.0143
26 | ACGCTCAA | 0.0741
27 | CGCGCCCG | -0.259
28 | CGCCGCAC | -0.233
29 | CGACTGTC | -0.17
30 | AAGCCTGT | 0.00849
31 | CGCAAATC | -0.0144
32 | CTGCCACA | -0.146
33 | GTTACCTA | 0.00439
34 | CAGGCTAA | -0.0897
35 | CGAAAACA | -0.0127
36 | AGATCCGA | -0.0352
37 | CGAGAGCA | -0.0204
38 | ATTTCCGC | 0.15
39 | CTTGAAAA | 0.207
40 | AACCGGTC | -0.164
41 | AGACCGGA | -0.175
42 | ATCCCCTA | -0.106
43 | AATTTCCC | 0.226
44 | TAAATTGA | 0.265
45 | ATCCCGAA | 0.0959
46 | AGAGCATG | -0.191
47 | AATGTTCT | 0.16
48 | CTACTAAG | 0.0778

Row | Sequence | PBM E-score
49 | GTAGTCTA | 0.107
50 | CGGTACTA | -0.0881
51 | TGCATACA | 0.133
52 | AGCGCGTA | 0.0918
53 | GCGGACGA | -0.166
54 | ACCTGAAG | -0.0699
55 | AAATAGGT | 0.147
56 | AGTAAACT | 0.185
57 | CGGCAGAG | -0.338
58 | AAGTCATG | -0.0623
59 | ACACATTC | 0.0739
60 | AAATGAGA | 0.00643
61 | CACTGAGA | -0.112
62 | AGAGGGAA | -0.181
63 | CCGCAACC | -0.0709
64 | AATCGTTG | 0.126
65 | CAGGTCAG | -0.0403
66 | GCAGGTCA | -0.277
67 | AACCGGGT | 0.0127
68 | ACACAGAA | 0.0754
69 | GGAAACGA | -0.0233
70 | AAGCAGCC | -0.143
71 | AGAATTAA | 0.209
72 | TCCGCCGA | -0.0526

Row | Sequence | PBM E-score
73 | AACCGGTT | -0.176
74 | AATGCCAT | -0.0186
75 | CTAACGTA | 0.0957
76 | GGTATCTA | 0.0279
77 | GTAATTAA | 0.105
78 | AGAGTGAC | -0.147
79 | TCATATGA | 0.2
80 | ACGCTCTC | -0.281
81 | GATATAAA | 0.142
82 | GATTATGC | 0.0323
83 | ACGGCAAC | -0.169
84 | CCCGAGCG | -0.0658
85 | AAGAACCT | 0.154
86 | CTATGTCA | 0.0495
87 | ACTATTGG | -0.146
88 | CCTAATGA | 0.0448
89 | CGTTGAGA | 0.0633
90 | ACAACTTG | 0.00851
91 | AGGCTTTC | 0.0556
92 | ACACCACA | 0.121
93 | ACCCTTGC | -0.0854
94 | AACGCACC | -0.0917

Reference: the supplement of paper PMC3334620
